The source of these data is PubChem BioAssay AID1362 (SRMLSC, 2008).

The inhibition is the drop in the measured response relative to a control, in per cent.

Each structure is given as a SMILES string. Some of the results follow. Further columns of the screen follow, without active or inactive calls. The list favours compounds with an active or inconclusive main result.

The nature of the test: growth inhibition of WT strain, primary screen, mitochondrial fusion inhibitor project, WT and mutant strains, chemical genetic (AID 1362). Also: tested in S. cerevisiae. As to conditions: mitochondrial fusion phenotypic screen, at 10 µM.
On to `O=C(Nc1cc(S(=O)(=O)N2CCOCC2)ccc1Cl)C(=O)c1c(-c2ccccc2)cc2ccccn12`, for which the inhibition is 94.5%.
As to `O=C(Nc1ccc(Cl)c(Cl)c1)c1cccc(S(=O)(=O)NCc2cccnc2)c1`, the inhibition came to 68.7%.
`Cc1cc(C)cc(NC(=O)c2ccc([N+](=O)[O-])o2)c1`: the inhibition is 75.5%.
The same measure for `O=C(NC(=S)NCCC1=CCCCC1)c1ccc(Br)o1`: 47%; for `CCOC(=O)CN1C(c2ccc(O)cc2)Nc2ccc(Br)cc2C1c1ccccc1` (centres undefined): 90.6%; for `CCOC(=O)C1=C(Nc2ccccc2)CC(C)(O)C(C(=O)OCC)C1c1ccc(Cl)cc1` (centres undefined): 17.6%.
The same measure for `CC/C(=N\NC(=S)Nc1cccc(C)c1)c1ccccc1`: 69.7%; for `O=C(C1=C[C@H](c2csc3ccccc23)C[C@H](OCc2ccc(CO)cc2)O1)N1CCN(Cc2ccc3c(c2)OCO3)CC1`: 31.6%.
The same measure for `CCCC[C@@H]1C[C@H]1[C@@H](NC(=O)c1ccco1)c1ccc(Cl)cc1`: -1.03%.
As to `Cc1ccc(/C=N/n2cc(-c3ccccc3)[nH]c2=S)s1`, the inhibition stood at 59.8%.
The same measure for `CCCCN(CCCC)c1ncnc2nc[nH]c12`: 77.1%.
The same measure for `COc1ccc(NC(=S)NC(NC(=O)c2ccc(Cl)cc2Cl)C(Cl)(Cl)Cl)c([N+](=O)[O-])c1` (centres undefined): 16.7%; for `FC(F)(F)c1ccc(NC(=S)NCc2ccccc2)cc1`: 25.5%; for `CCN=c1scc(-c2ccco2)n1/N=C/c1ccc(OC)c(O)c1`: 5.19%.
The same measure for `Cc1cc(NCc2ccccc2)nc(-c2ccccc2O)n1`: 43.5%; for `Cc1ccc(C)c(/C=N/n2cc(-c3ccccc3)[nH]c2=S)c1`: 59%.
On to `C/C(=N\N=C(/N)SC1CC(=O)N(c2ccc(Br)cc2)C1=O)c1cccs1` (centres undefined), for which the inhibition is 46.7%.
In the case of `CCN(Cc1ccccc1)c1ccc(/C=N/NC(=S)NC(C)C)cc1` it was 3.3%; in that of `N#CC(C#N)=c1ccc2c(c1)N1C3=C(CCCC3)CC3CCCCC31N=2` (centres undefined), 22.7%.
In the case of `CCOc1ccc(N2CC(C(=O)NC(C)C)CC2=O)cc1` (centres undefined) it was -2.76%.
Turning to `CC(C)CNC(=S)Nc1ccc(Oc2ccccc2)cc1`, the inhibition was found to be 47.1%.
In the case of `S=C(c1cn(CCOc2ccccc2)c2ccccc12)N1CCCC1`, the inhibition stood at 57.9%.
The same measure for `O=C(c1cccs1)N(Cc1nc2sc3c(c2c(=O)[nH]1)CCCC3)C1CCCC1`: 40.3%.
The same measure for `COC(=O)C1=C(O)C(C(=O)OC)C(c2ccc(C)cc2)C(C#N)(C#N)C1c1ccc(C)cc1` (centres undefined): -5.17%; for `S=C(Nc1ccc(Nc2ccccc2)cc1)Nc1ccccn1`: 59.2%; for `C(=N\N1CCN(C2c3ccccc3-c3ccccc32)CC1)/c1ccncc1`: 60.9%.
The same measure for `O=C(CCc1ccccc1)NNC(=S)NC(=O)c1ccc(Cl)cc1`: 42.2%; for `COc1cc(S(=O)(=O)N(C)C2CCCCC2)c(C)cc1C`: 28.1%.
In the case of `COc1ccccc1C(=O)NNC(=S)NC(=O)c1ccco1`, the inhibition amounted to 58.8%.
Consider `Cc1ccccc1C(=O)NC(=S)NCCC1=CCCCC1`, for which the inhibition is 43.7%.
In the case of `COc1ccc(NC(=S)NCCC(c2ccccc2)c2ccccc2)c(OC)c1` it was 3.38%; in that of `NC(=O)C1(N2CCCCC2)CCN(c2nc(-c3ccc(Br)cc3)cs2)CC1`, 55.3%; in that of `Cn1c(O)c(N=NC(=S)Nc2ccccc2F)c2cc(S(=O)(=O)N3CCOCC3)ccc21`, 36%.
`C/C(=N/Nc1nc(-c2ccccc2)cc(-c2ccc(F)cc2)n1)c1cccc(N)c1`: the inhibition stood at 25.1%.
In the case of `O=C(Nc1ccccc1)Nc1cc(OCC(F)(F)F)cc(OCC(F)(F)F)c1` it was 27.6%; in that of `CC(C)NC(=S)N/N=C/c1ccc(C(C)(C)C)cc1`, 34.9%; in that of `COc1cc(NC(=S)NCCC(c2ccccc2)c2ccccc2)cc(OC)c1`, 2.82%.
In the case of `O=C(c1cccc(F)c1)N1CCN(c2cc(N3CCCCC3)c(F)cc2[N+](=O)[O-])CC1` it was 50.2%.
Turning to `O=C(COC(=O)c1ccc([N+](=O)[O-])s1)Nc1ccccc1`, the inhibition stood at 5.74%.
`Fc1ccc(NC(=S)Nc2ccccc2OC(F)F)cc1Cl`: the inhibition was 26.1%.
The same measure for `O=C1CC(c2cccc(Cl)c2)CC(O)=C1C=Nc1cccc(Cl)c1` (centres undefined): 45.2%; for `Cn1c(O)c(/C=N/Nc2ccccc2)c(=O)n(C)c1=O`: 63.1%; for `COCCN=c1scc(-c2ccccc2)n1/N=C/c1c[nH]c2ccccc12`: 45.1%.
For `Cc1ccccc1OCCCSc1nc2ccccc2[nH]1`, the inhibition is 34.3%.
The same measure for `CC(C)c1ccc(NC(=S)NCCc2c[nH]c3ccccc23)cc1`: 40.2%; for `CCOC(=O)c1c(C)oc2c1c(C(c1ccccc1)N1CCOCC1)c(O)c1ccccc12` (centres undefined): 49.6%; for `Cc1[nH]c2ccccc2c1C(=O)COC(=O)c1ccc([N+](=O)[O-])s1`: 98%.
The same measure for `Cc1ccc(NC(=S)NCC(C)CSc2ccc(Cl)cc2)cc1` (centres undefined): 50.7%; for `Cc1ccc(C2CC(c3cccs3)=NN2C(=O)c2ccc(Br)o2)cc1` (centres undefined): 61.9%; for `Cc1ccc(NC(=O)C(Nc2cccc(C)c2)c2ccccc2)cc1` (centres undefined): 29.4%.
The same measure for `COc1ccc(N2CCN(C(=O)c3ccc(Br)cc3)CC2)c([N+](=O)[O-])c1`: 68.3%; for `CNC(=S)N/N=C(\C)c1ccc(C(C)(C)C)cc1`: 55.8%; for `O=C(Nc1cccnc1)Nc1cc(Cl)cc(Cl)c1`: 74.6%.
Take `COc1ccc(CCNC(=S)Nc2cc(C)ccc2C)cc1`: the inhibition was 50.1%.
In the case of `CCC1(c2ccc(Cl)cc2)NC(=S)N(c2ccc(C)cc2)N1` (centres undefined) it was 57.7%; in that of `O=C(c1ccc(Cl)cc1)N1CCC(O)(CSc2ccc(Cl)cc2)CC1`, 54.8%.
The same measure for `O=C(COc1c(Br)cc(Br)c2cccnc12)N1CCc2ccccc2C1`: 44.4%; for `CCn1c(NC(=O)c2ccc(F)cc2)c2ccccc2nc1=O`: 10.4%.
The same measure for `Cc1cc(OCC(=O)Nc2ccncc2)cc(C)c1Br`: 64.9%; for `COC(=O)CNC(c1ccccc1)c1cc(C)ccc1NC(=O)c1cccc(Cl)c1` (centres undefined): 5.3%.
In the case of `O=S(=O)(c1ccc(Cl)c(Cl)c1)c1snnc1-c1ccccc1`, the inhibition stood at 78.3%.
As to `CC(C)c1ccc(NC(=S)NCc2cccs2)cc1`, the inhibition amounted to 56.1%.
For the compound `Fc1ccc(C2c3cccn3CCN2C(=S)Nc2cccc(F)c2)cc1` (centres undefined), the inhibition was found to be 32.1%.
Take `O=C(OCc1csc(Nc2ccccc2)n1)c1ccc(Cl)cc1`: the inhibition came to 14%.
In the case of `O=c1c2c3c(sc2nc(NCCO)n1CCc1ccccc1)CCCCC3` it was 3.89%; in that of `Cc1cccc(-n2ncc3c(N4CCCc5ccccc54)ncnc32)c1`, 58.7%.
The same measure for `COc1ccc(NCc2nc3ccccc3n2CCOc2ccc(C)cc2)cc1`: 64.1%; for `Cc1ccc(Cl)cc1N1CCN(C(=S)NCCc2ccccc2)CC1`: 29.7%; for `O=c1cc(N2CCCCC2)c(-c2ccccc2)nn1Cc1ccc(Cl)cc1Cl`: 21.1%.
